This is an account of results in a collection of fitness landscapes (doi:10.1126/science.1257360).

The other results are listed elsewhere or left out.

The chains are these.
B1: PhoQ; a variant is named by its letters at X, in order, P23837 (parent)
chain: MKKLLRLFFPLSLRVRFLLATAAVVLVLSLAYGMVALIGYSVSFDKTTFRLLRGESNLFYTLAKWENNKLHVELPENIDKQSPTMTLIYDENGQLLWAQRDVPWLMKMIQPDWLKSNGFHEIEADVNDTSLLLSGDHSIQQQLQEVREDDDDAEMTHSVAVNVYPATSRMPKLTIVVVDTIPVELKSSYMVWSWFIYVLSANLLLVIPLLWVAAWWSLRPIEALAKEVRELEEHNRELLNPATTRELTSLVRNLNRLLKSERERYDKYRTTLTDLTHSLKTPLXXLQXXLRSLRSEKMSVSDAEPVMLEQISRISQQIGYYLHRASMRGGTLLSRELHPVAPLLDNLTSALNKVYQRKGVNISLDISPEISFVGEQNDFVEVMGNVLDNACKYCLEFVEISARQTDEHLYIVVEDDGPGIPLSKREVIFDRGQRVDTLRPGQGVGLAVAREITEQYEGKIVAGESMLGGARMEVIFGRQHSAPKDE

The variants in the assay derive from B1. Briefly: enrichment ratio after two sorts for PhoP signalling (ratio (wild type AVST 3.29)); higher = more functional. To be noted: with PhoP (E. coli).
FAFS: the enrichment ratio was no more than 0.25.
As for QYTK, the figure is no more than 0.25; as for RILR, no more than 0.25.
Consider VQDC, for which the enrichment ratio was no more than 0.25.
As for MQED, the enrichment ratio is no more than 0.25.
As for LEGQ, the figure is no more than 0.25; as for ICQN, no more than 0.25; as for MPFS, no more than 0.25.
In the case of DDND, the enrichment ratio is no more than 0.25.
For QHDI, the enrichment ratio was found to be 19.6.
As for FFEH, the enrichment ratio was no more than 0.25.
As for EYMH, the figure is no more than 0.25; as for FSTA, no more than 0.25.
Next, GIVK: 8.57; IKDY: no more than 0.25.
As for TSYL, the figure is 10.5; as for DAVD, no more than 0.25.
As to QPVN, the enrichment ratio is no more than 0.25.
Consider ASSK, for which the enrichment ratio was no more than 0.25.
As for MKRN, the enrichment ratio was no more than 0.25.
As to YHLF, the enrichment ratio was no more than 0.25.
Next, PITW: no more than 0.25; GYGW: no more than 0.25; RDCR: no more than 0.25.
Next, TPEQ: no more than 0.25; RHRC: no more than 0.25; FGAG: no more than 0.25.
On to RSNW, for which the enrichment ratio is no more than 0.25.
Next, HVRD: no more than 0.25; GVFQ: no more than 0.25.
Next, WPFP: no more than 0.25.
On to NFMP, for which the enrichment ratio is no more than 0.25.
Take LALA: the enrichment ratio came out at 0.957.
As for GHHD, the figure is no more than 0.25; as for RRVE, no more than 0.25; as for WHLL, no more than 0.25.
Turning to HTGT, the enrichment ratio is no more than 0.25.
With YIVS, the enrichment ratio is no more than 0.25.
Consider GHNG, for which the enrichment ratio was no more than 0.25.
Take TQSM: the enrichment ratio stood at 23.3.
For the variant QYTF, the enrichment ratio was no more than 0.25.
With KIFW, the enrichment ratio is no more than 0.25.
Consider AQIS, for which the enrichment ratio came to 13.
As to HEAM, the enrichment ratio was no more than 0.25.
As for PVSQ, the figure is no more than 0.25; as for YNTT, no more than 0.25.
As for FEGK, the figure is no more than 0.25.
Take EVPG: the enrichment ratio is no more than 0.25.
With IGLI, the enrichment ratio came out at 10.5.
With NAEK, the enrichment ratio is no more than 0.25.
As for HWLY, the figure is no more than 0.25; as for PAWA, no more than 0.25; as for SCAN, 8.05.
Next, WCDL: no more than 0.25; YQNV: no more than 0.25.
In the case of GIWV, the enrichment ratio was no more than 0.25.
As to MNSC, the enrichment ratio was no more than 0.25.
As for GMWE, the figure is no more than 0.25; as for MAAH, 0.686; as for EYVC, no more than 0.25.
Next, GSRW: no more than 0.25; YGCG: no more than 0.25; LDDT: no more than 0.25.
SHII: the enrichment ratio is no more than 0.25.
As for AWAM, the figure is no more than 0.25; as for YVQW, no more than 0.25; as for TQKC, no more than 0.25.
As for DQAQ, the figure is no more than 0.25.
Next, PPAI: no more than 0.25; HNAI: 4.72.
Regarding FERE, the enrichment ratio is no more than 0.25.
Next, WANP: no more than 0.25; LMNF: no more than 0.25.
Turning to THLP, the enrichment ratio was no more than 0.25.
In the case of RGNI, the enrichment ratio is no more than 0.25.
On to KNRG, for which the enrichment ratio was no more than 0.25.
For the variant YKAH, the enrichment ratio was no more than 0.25.
As for YPME, the figure is no more than 0.25.
Next, VIRL: no more than 0.25; AWYK: no more than 0.25.
With VFTY, the enrichment ratio was no more than 0.25.
As to MHYM, the enrichment ratio is no more than 0.25.
For the variant HWMQ, the enrichment ratio is no more than 0.25.
Consider GPKE, for which the enrichment ratio is no more than 0.25.
